Publication PMC6919601, “Identification of Plasmodium dipeptidyl aminopeptidase allosteric inhibitors by high throughput screening” (PLoS ONE, 2019)
Where “and” joins values, the source holds several entries; their conditions need not be identical. Identical values can stand only once. The whole screen tested about 110,000 compounds, of which about 230 (0.21%) showed an effect of 50% or more. This is one part of the list.

Each compound was assayed against DPAP1 (Plasmodium falciparum, UniProt Q8IIJ9) (assay: primary screen, percent inhibition; read by cleavage of a fluorogenic dipeptide substrate; higher = more effect of the substance).
Design: species or system P. falciparum D10 trophozoite lysates; single well
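Also: 30 min substrate incubation versus DMSO and 10 µM JCP410 controls.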

Sequence of DPAP1 (Q8IIJ9 whole entry, looked up): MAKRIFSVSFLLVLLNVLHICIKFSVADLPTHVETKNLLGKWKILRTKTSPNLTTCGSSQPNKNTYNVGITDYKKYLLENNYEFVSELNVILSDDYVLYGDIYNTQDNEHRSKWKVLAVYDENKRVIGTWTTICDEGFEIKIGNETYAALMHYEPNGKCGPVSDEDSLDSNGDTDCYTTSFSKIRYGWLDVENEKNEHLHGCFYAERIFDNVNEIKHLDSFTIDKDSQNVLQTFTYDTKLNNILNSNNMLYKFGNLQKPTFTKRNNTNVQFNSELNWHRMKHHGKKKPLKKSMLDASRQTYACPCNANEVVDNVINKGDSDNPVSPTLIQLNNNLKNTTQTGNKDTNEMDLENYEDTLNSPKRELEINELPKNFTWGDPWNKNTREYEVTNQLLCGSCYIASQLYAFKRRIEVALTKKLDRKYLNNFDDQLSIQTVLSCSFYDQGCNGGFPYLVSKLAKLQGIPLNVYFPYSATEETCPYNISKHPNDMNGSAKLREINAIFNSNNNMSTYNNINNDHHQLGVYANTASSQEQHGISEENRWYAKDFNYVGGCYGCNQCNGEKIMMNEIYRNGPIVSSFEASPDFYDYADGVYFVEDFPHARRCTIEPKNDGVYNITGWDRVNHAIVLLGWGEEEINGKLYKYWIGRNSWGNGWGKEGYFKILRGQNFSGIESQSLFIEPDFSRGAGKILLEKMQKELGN

First: Cc1nn(C(=O)CCC(=O)NCCC(C)C)c2ccccc12
Second: Cc1ccc(CCNC(=O)CNC(=O)c2cc3ccccc3o2)cc1
The “% Inhibition @ 10 uM” value of the first is higher: 0.596% for the first, -5.1% for the second.

Going from O=C(Nc1cccnc1)c1ccc(Oc2ccccc2)cc1 to O=C(/C=C/c1cn(-c2ccccc2)nc1-c1cccnc1)c1ccccc1, the “% Inhibition @ 10 uM” value rises from -5.54% to -0.339%.

First: Cn1c2ccccc2c2cnn(CC(=O)NC3CCN(Cc4ccccc4)CC3)c(=O)c21
Second: O=C(Cn1cc(C(=O)C(F)(F)F)c2ccccc21)N1CCc2ccccc2C1
The “% Inhibition @ 10 uM” value of the first is higher: 4.53% for the first, -5.15% for the second.

Compared with O=C(O)C1Cc2c([nH]c3ccccc23)C2c3ccccc3C(=O)N12 (centres unmarked), CCC(c1ccccc1)c1c(O)oc2ccccc2c1=O (centres unmarked) is higher in “% Inhibition @ 10 uM” value: 4.89% for the first, 9.35% for the second.

Compared with CC(C)Cn1c(NC2CCCCC2)nc2c1c(=O)[nH]c(=O)n2C, NC(=O)NC1CCCCC1 is higher in “% Inhibition @ 10 uM” value: -3.41% for the first, -0.48% for the second.

Compared with O=C(COCc1cc(-c2ccc3c(c2)OCO3)on1)Nc1c2ccccc2nc2ccccc12, COc1ccccc1CNC(=O)CC(c1cccs1)N1Cc2ccccc2C1=O (centres unmarked) is higher in “% Inhibition @ 10 uM” value: -1.04% for the first, 0.28% for the second.

Compared with Cc1cccc2sc(NC(=O)CCn3cnnn3)nc12, CCSc1nnc(NC(=O)C(Cc2ccccc2)n2cccc2)s1 (centres unmarked) is lower in “% Inhibition @ 10 uM” value: -3.07% for the first, -6.07% for the second.

Compared with O=C1OC(Oc2ccccc2)(c2ccccc2)c2ccccc21 (centres unmarked), O=C(Cn1ncc2c1-c1ccccc1OC2)Nc1ccc(Cl)cn1 is higher in “% Inhibition @ 10 uM” value: -2.87% for the first, 0.981% for the second.

First: Cc1ccc(-n2nc(C)c3c2OC(N)=C(C#N)C3c2ccco2)cc1 (centres unmarked)
Second: N#CC1=C(N)Oc2[nH]nc(C(F)(F)F)c2C1c1ccccc1Cl (centres unmarked)
The “% Inhibition @ 10 uM” value of the first is lower: 0.317% for the first, 0.514% for the second.

First: CCOC(=O)c1c(-c2ccccc2)csc1NC(=O)c1cccs1
Second: CC(NC(=O)c1cccc2c1C(=O)N(Cc1cccnc1)C2)c1cccs1 (centres unmarked)
The “% Inhibition @ 10 uM” value of the first is higher: 2.23% for the first, -0.499% for the second.

Going from Cn1c(=O)c2c(ncn2CC(=O)NCc2ccc(Cl)cc2)n(C)c1=O to Cn1c(=O)c2c(nc(Oc3ccc(C#N)cc3)n2Cc2ccccc2Cl)n(C)c1=O, the “% Inhibition @ 10 uM” value rises from -1.33% to 3.81%.

Going from O=C(/C=C/c1cccc([N+](=O)[O-])c1)Nc1ccccc1Cl to Cc1ccc(C(=O)Nc2ccc(C)c(Cl)c2)s1, the “% Inhibition @ 10 uM” value falls from 6.14% to -7.93%.

Going from Cn1c(=O)n(C)c2c([N+](=O)[O-])ncc(Br)c21 to COc1cc(/C=C2/NC(=O)N(Cc3ccccc3F)C2=O)cc(Br)c1O, the “% Inhibition @ 10 uM” value rises from 2.58% to 63%.

Compared with CCOC(=O)c1cc(C)n(CC2CCC(C(=O)Nc3cccc(C)n3)CC2)c1C (centres unmarked), Cc1ccccc1C(=O)Nc1sc2c(c1C(=O)OC(C)C)CCCC2 is lower in “% Inhibition @ 10 uM” value: -0.943% for the first, -1.1% for the second.

Going from CCN(CC)CCN(CC)Cc1ccc(N(C)C)cc1 to CCc1ccc(OCC(O)CN2CCN(C)CC2)cc1 (centres unmarked), the “% Inhibition @ 10 uM” value falls from 3.44% to -0.424%.

Going from O=C(NC1C2CC3CC(C2)CC1C3)c1cccc([N+](=O)[O-])c1 (centres unmarked) to O=C(NCCO)/C(=C/c1ccc2c(c1)OCO2)NC(=O)c1cccc(Br)c1, the “% Inhibition @ 10 uM” value rises from 0.162% to 2.18%.

Compared with Cc1ccc(S(=O)(=O)N2CC(=NN=C(N)N)C2)cc1, CCS(=O)(=O)n1nc(-c2ccc(OC)cc2)nc1N is lower in “% Inhibition @ 10 uM” value: -1.84% for the first, -2.75% for the second.

First: CCOc1cc(C(=O)Nc2c3c(nn2-c2ccc(C)cc2)CS(=O)(=O)C3)cc(OCC)c1OCC
Second: Cc1cccc(NC(=O)C2CC(=O)N=C(Nc3ccc(C)c(C)c3)S2)c1 (centres unmarked)
The “% Inhibition @ 10 uM” value of the first is lower: 0.849% for the first, 1.79% for the second.

Going from Cc1cc(OCC(=O)Nc2ccc(Br)cc2)ccc1Cl to O=C(Nc1ccc(CN2CCOCC2)cc1)c1ccc(Cl)cc1, the “% Inhibition @ 10 uM” value rises from 0.214% to 1.83%.

First: CCC(C)NC(=O)c1ccc2[nH]c(C)c(C)c2c1 (centres unmarked)
Second: Cc1[nH]c(-c2ccc(F)cc2)cc1C(=O)NCCCOC(C)C
The “% Inhibition @ 10 uM” value of the first is higher: 0.92% for the first, -0.659% for the second.

Compared with O=C(O)c1ccc(/C=C2/NC(=O)N(Cc3ccccc3F)C2=O)cc1, O=C(CCN1C(=O)c2cccc3cccc(c23)C1=O)N1CCCCC1 is higher in “% Inhibition @ 10 uM” value: -0.48% for the first, 1.55% for the second.

Going from CCOC(=O)N1CCC(N2CCN(CC)CC2)CC1 to COc1ccccc1-c1c(C)nn2c(N3CCC(N4CCCCC4)CC3)cc(C)nc12, the “% Inhibition @ 10 uM” value falls from 1.08% to 0.718%.

Compared with CCc1nn(CC(=O)N2CCN(Cc3ccc4c(c3)OCO4)CC2)c(=O)c2cc3sccc3n12, COc1ccc(-c2noc(N(C)CC(=O)NCCCN3CCOCC3)n2)cc1 is higher in “% Inhibition @ 10 uM” value: 1.8% for the first, 4.33% for the second.

First: O=C1N2CN(C3CCCCC3)CN=C2SC1(CO)CO
Second: CC1=CC=CN2C(=O)C(Cc3ccc(Cl)cc3)(NC(=O)c3ccccc3Cl)N=C12 (centres unmarked)
The “% Inhibition @ 10 uM” value of the first is lower: -0.357% for the first, 4.85% for the second.

Cc1cc(C(F)(F)F)nn1CC(=O)Nc1ccc(Br)c2cccnc12 was tested, and the “% Inhibition @ 10 uM” value was 0.361%.

For Cc1nn2cc(-c3ccccc3)nc2s1, the “% Inhibition @ 10 uM” value was -0.0267% and 1.24%.
